Drawing on PubChem BioAssay AID1956 (SRMLSC, 2009), this text covers fold increase and viability for 70 molecules.

Each structure is given as a SMILES string. Some of the results follow. The main result of the screen is listed elsewhere. These columns were measured beside it and carry no call.

The assay in a line: enhancers of HSV replication in host cells, fold increase, host cell viability (AID 1956). Note: tested in PC3 cells. The following applies: HSV replication augmentation in cells; fold increase: measured here: primary screen fold increase 10 uM, at 10 µM, stronger effect = higher value; viability: measured here: host cell viability series, at 25 µM, stronger effect = lower value.
In the case of `CCOc1cc(/C=C2\C(=O)NC(=O)N(CCc3ccc(F)cc3)C2=O)ccc1O`, the fold increase was 1.39 and the viability (as a rule, a read-out of living cells in per cent, often relative to untreated cells) is 101%.

For the molecule `CC(=O)c1c(C)n(Cc2ccccc2)c2ccc(O)cc12`, the fold increase came out at 1.33 and the viability came to 90.6%. In the same order, the values of `Cn1cccc1/C=C1\C(=O)NC(=O)N(Cc2ccco2)C1=O` are 1.36 and 94.1%. On to `CN1C(=O)C(=Cc2ccc(N3CCCCC3)o2)C(=O)N(C)C1=S`, for which the fold increase amounted to 3.22 and the viability was found to be 104%.

Turning to `COc1ccccc1OP(=O)(Nc1cccnc1)Oc1ccccc1OC`, the fold increase stood at 1.37 and the viability was 71.7%. For `CC(C)C[C@H]1C(=O)N2CCCC2[C@]2(O)O[C@](NC(=O)[C@@H]3C=C4c5cccc6[nH]cc(c56)CC4N(C)C3)(C(C)C)C(=O)N12` (some centres not stated), in that order: 2.02 and 96%. For `O=C1NC(=O)N(c2ccc3c(c2)OCO3)C(=O)/C1=C\c1ccc(-c2ccccc2C(=O)O)o1`, in that order: 1.35 and 108%.

With `CCCSc1nc(O)c(CC)c(=O)n1C(C)CC` (configuration not stated), the fold increase was 1.34 and the viability came to 94.1%. For the molecule `O=C1NC(=O)N(c2ccc3c(c2)OCO3)C(=O)/C1=C\c1ccc(N2CCCCC2)o1`, the fold increase is 1.76 and the viability was 90.3%. For `CC(C)[C@H]1C(=O)N2CCC[C@H]2[C@]2(O)O[C@](NC(=O)[C@@H]3C=C4c5cccc6[nH]cc(c56)C[C@H]4N(C)C3)(C(C)C)C(=O)N12`, in that order: 2.7 and 97.8%. For `O=C1NC(=O)N(Cc2ccccc2)C(=O)/C1=C/c1cnc(-c2ccccc2)nc1`, in that order: 2.06 and 97.5%. Regarding `CN1/C(=C\C=C2C(=O)NC(=O)NC2=O)C(C)(C)c2ccccc21`, the fold increase worked out at 7.92.

As for `COc1ccc2c(c1)CC1(CN2C)C(=O)NC(=O)N(c2ccc(C)cc2)C1=O` (configuration not stated), the fold increase worked out at 1.35 and the viability is 100%. For `CCOC(=O)c1ccccc1NC(=O)c1c(O)[nH]c(=O)[nH]c1=O`, in that order: 1.38 and 99.8%.

With `Cc1ccc(N2C(=O)NC(=O)/C(=C\C=C\c3ccco3)C2=O)cc1`, the fold increase was determined as 1.71 and the viability worked out at 73.7%.

For `CN(C(=O)Oc1ccc(C(C)(C)C)cc1)c1ccccc1`, the fold increase was 1.32 and the viability is 101%. Turning to `Cc1ccccc1-n1c(O)c(C=Nc2ccc3c(c2)OCO3)c(=O)[nH]c1=O`, the fold increase amounted to 1.36. As for `CCc1nnc(NS(=O)(=O)c2ccc(N=Cc3c(O)n(-c4ccc(Cl)cc4)c(=O)[nH]c3=O)cc2)s1`, the fold increase was determined as 1.4 and the viability was 98.2%. Turning to `O=c1[nH]c(=O)n(-c2ccc(F)cc2)c(O)c1C=NCCN1CCCCC1`, the fold increase amounted to 1.32.

Regarding `O=C(NC(c1ccc(Cl)cc1)P(=O)(Oc1ccccc1)Oc1ccccc1)OCc1ccccc1` (configuration not stated), the fold increase is 1.27. For the molecule `CCOC(=O)C1CCCN(c2ccc([N+](=O)[O-])c3nonc23)C1` (configuration not stated), the fold increase was determined as 7.69 and the viability worked out at 98.7%. In the same order, the values of `O=c1c(C=Nc2cccnc2Cl)c(O)n(CCCCl)c(=O)n1C1CCCCC1` are 1.5 and 96.8%. On to `CCC(CO)NC(=O)C1C=C2c3cccc4[nH]cc(c34)CC2N(C)C1` (configuration not stated), for which the fold increase came to 1.44 and the viability is 93.7%. Turning to `O=C1NC(=O)N(Cc2ccc(F)cc2)C(=O)/C1=C\c1ccc(N2CCCC2)cc1`, the fold increase is 1.35 and the viability is 89.6%. Regarding `O=c1c2ccccc2nc(/C=C/c2ccc(O)cc2)n1-c1cccc(O)c1`, the fold increase was 4.97. Take `Clc1ccccc1CN1CCN(c2cccc3[nH]ccc23)CC1`: the fold increase stood at 1.45 and the viability was 101%. In the same order, the values of `O=C1NC(=O)N(Cc2ccccc2)C(=O)/C1=C\c1ccco1` are 1.4 and 101%. In the same order, the values of `CCOC(=O)C1=C(N)Oc2cc(C)oc(=O)c2C12C(=O)N1c3c(cc(OC)cc32)C(C)=CC1(C)C` (configuration not stated) are 1.54 and 93.5%. For `O=C1NC(=O)N(Cc2ccco2)C(=O)/C1=C\c1cccn1CCOc1ccc(Cl)cc1`, in that order: 1.74 and 93.3%. Consider `O=c1c2ccccc2nc(/C=C/c2ccc(O)cc2)n1-c1ccccc1O`, for which the fold increase was 3.16 and the viability is 84.9%. In the same order, the values of `CC(C)c1ccc(-n2c(O)c(/C=N/NC(=O)c3ccncc3)c(=O)[nH]c2=O)cc1` are 7.74 and 92.9%.

Turning to `CCCCC(=O)N/N=C/c1c(O)n(Cc2ccco2)c(=O)[nH]c1=O`, the fold increase amounted to 1.39 and the viability is 96.9%. In the case of `CCN(CC)c1ccc(N=Cc2c(O)n(Cc3ccco3)c(=O)[nH]c2=O)cc1`, the fold increase stood at 1.37 and the viability came out at 101%. For `COc1ccc(CN2C(=O)NC(=O)/C(=C/c3ccoc3)C2=O)cc1`, in that order: 2.7 and 98.2%. As to `C#CCN1C(=O)S/C(=C\c2ccc(N3CCOCC3)cc2C)C1=O`, the fold increase is 2.04 and the viability worked out at 100%. For the molecule `CCOP(=O)(OCC)c1cccc(OP(=O)(c2cccc([N+](=O)[O-])c2)c2cccc([N+](=O)[O-])c2)c1`, the fold increase came out at 1.32. For the molecule `O=C1NC(=O)N(Cc2ccc(F)cc2)C(=O)/C1=C\C=C\c1ccco1`, the fold increase is 1.64 and the viability came out at 81.6%.

As for `O=C(NCCN1CCCCC1)c1ccc(Cl)nc1Cl`, the fold increase was 1.32. As to `CC(C)c1ccc(N2C(=O)NC(=O)/C(=C/C=C/c3ccco3)C2=O)cc1`, the fold increase was determined as 2.24. In the case of `Cc1cccc(N2C(=O)NC(=O)/C(=C\c3cc(C)n(-c4sc5c(c4C#N)CCCC5)c3C)C2=O)c1C`, the fold increase turned out to be 1.37.

For the molecule `O=c1cc(C(F)(F)F)c2cc3c4c(c2o1)CCCN4CCC3`, the fold increase is 18.8 and the viability came to 82.9%.

For `O=C1NC(=O)N(c2ccc(F)cc2)C(=O)/C1=C/c1ccc2c(c1)CCCN2Cc1ccccc1`, the fold increase came to 1.46 and the viability came to 93.8%. `O=C1NC(=O)C(=Cc2coc3ccc(O)cc3c2=O)C(=O)N1`: the fold increase turned out to be 1.41 and the viability was determined as 96.8%. Consider `O=C1NC(=O)N(Cc2ccccc2)C(=O)/C1=C\C=C\c1ccco1`, for which the fold increase amounted to 3.03. Take `CCN(CC)c1ccc(N=Cc2c(O)n(CCC3=CCCCC3)c(=O)[nH]c2=O)cc1`: the fold increase stood at 2.15 and the viability was determined as 76.8%. In the same order, the values of `O=C1NC(=O)N(c2cccc(Cl)c2)C(=O)/C1=C\c1ccc(Sc2nc3ccccc3[nH]2)o1` are 1.42 and 102%. On to `COc1cccc(-n2c(/C=C/c3ccc(O)c(O)c3)nc3ccccc3c2=O)c1`, for which the fold increase worked out at 7.26 and the viability is 82.7%. In the same order, the values of `Cc1ccc(N2C(=O)NC(=O)/C(=C/c3cnc(-c4ccccc4)nc3)C2=O)cc1C` are 2.83 and 107%.

Consider `CCc1ccc(-n2c(O)c(/C=N/NC(=O)c3ccncc3)c(=O)[nH]c2=O)cc1`, for which the fold increase is 1.43 and the viability was 107%.

Turning to `COc1ccc(N2C(=O)NC(=O)/C(=C\c3ccc([N+](=O)[O-])s3)C2=O)cc1`, the fold increase amounted to 1.61 and the viability worked out at 100%. For `CN1C(=O)/C(=C\c2ccc(N3CCCCC3)o2)C(=O)NC1=S`, in that order: 2.34 and 94.1%. Take `Cc1cc2c(C(F)(F)F)cc(=O)oc2c2c1NCCC2`: the fold increase worked out at 2.3. `O=C1NC(=O)N(c2ccc3c(c2)OCO3)C(=O)/C1=C/c1ccc(N2CCCCC2)o1`: the fold increase is 1.52 and the viability is 94.8%. For `CN(C)c1ccc(/C=C/C=C2/C(=O)NC(=O)N(c3ccccc3)C2=O)cc1`, in that order: 1.37 and 64.9%. In the same order, the values of `Cc1cc(/C=C2\C(=O)NC(=O)N(c3ccc(Cl)cc3)C2=O)c(C)n1-c1sc2c(c1C#N)CCCC2` are 1.51 and 89.8%. In the same order, the values of `COCCn1cc(C(=O)N2CCC3(CC2)OCCO3)c2c3ccccc3n(C)c2c1=O` are 1.32 and 95.3%. Turning to `Cc1cccc(-n2c(O)c(/C=N/Nc3nc4c(c(=O)n(C)c(=O)n4C)n3C)c(=O)[nH]c2=S)c1`, the fold increase stood at 1.36. `O=C1NC(=O)N(Cc2ccco2)C(=O)/C1=C/c1cccn1CCOc1ccccc1Cl`: the fold increase worked out at 1.65 and the viability was determined as 96.8%. Regarding `O=c1[nH]c(O)c(/C=C2/C=CC(c3cc(Cl)ccc3Cl)=N2)c(=O)[nH]1`, the fold increase stood at 1.34 and the viability was determined as 73.8%. In the same order, the values of `CCC(C)N1C(=O)/C(=C\c2ccc(N3CCCCCC3)cc2)C(=O)NC1=S` (configuration not stated) are 1.33 and 97.3%. Turning to `C=CCN1C(=O)/C(=C\c2ccc(N3CCOCC3)o2)C(=O)NC1=S`, the fold increase was determined as 1.42 and the viability was 96.6%.

For the molecule `C=CCn1c(=O)/c(=C\c2ccccn2)s/c1=C(/C#N)C(=O)NCC1CCCO1` (configuration not stated), the fold increase was found to be 1.39 and the viability turned out to be 97.2%. As to `CN1C(=O)C(=Cc2ccc(N3CCOCC3)o2)C(=O)N(C)C1=S`, the fold increase turned out to be 1.65. `C=CCNC(=O)c1c(N)n(Cc2ccco2)c2nc3ccccc3nc12`: the fold increase was 1.4 and the viability was determined as 84.4%. As for `CN(C)[C@@H]1C(=O)C(C(N)=O)=C(O)[C@@]2(O)C(=O)C3=C(O)c4c(O)cccc4[C@@](C)(O)[C@H]3[C@H](O)[C@@H]12`, the fold increase came out at 1.32 and the viability was 97.4%. In the same order, the values of `COCCNC(=O)c1c(NC(=O)c2ccc(Br)o2)n(Cc2ccccc2)c2nc3ccccc3nc12` are 2.78 and 96%.

Consider `O=c1[nH]c(=O)n(-c2ccccc2)c(O)c1/C=C/C=Nc1ccccc1`, for which the fold increase was determined as 2.73 and the viability turned out to be 102%. On to `COc1ccc(CN2C(=O)NC(=O)/C(=C/c3ccc([N+](=O)[O-])o3)C2=O)cc1`, for which the fold increase was found to be 1.46 and the viability came to 95.5%. Take `Cc1ccc(/C=C2\C(=O)NC(=O)N(CCc3ccc(F)cc3)C2=O)o1`: the fold increase came out at 1.48 and the viability amounted to 101%.

Consider `CCN(CC)c1ccc(C=C2C(=O)N(C)C(=S)N(C)C2=O)o1`, for which the fold increase is 1.77 and the viability was determined as 97.3%.
